{"sequences": {"note": "Sequences of proteins named here, by UniProt entry; tags and fusion partners are left off.", "UniProt Q9SXZ2": "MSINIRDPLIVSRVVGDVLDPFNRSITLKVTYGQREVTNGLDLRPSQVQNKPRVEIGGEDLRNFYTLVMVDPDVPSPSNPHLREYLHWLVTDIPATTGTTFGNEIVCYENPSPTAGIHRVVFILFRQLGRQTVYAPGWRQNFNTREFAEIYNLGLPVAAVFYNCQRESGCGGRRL"}, "source": "paper PMC4321167", "binders": {"B1": {"name": "FD, wild type (yeast two-hybrid fusion), Q84JK2 1-285 (protein)", "chain": "MLSSAKHQRNHRLSATNKNQTLTKVSSISSSSPSSSSSSSSTSSSSPLPSQDSQAQKRSLVTMEEVWNDINLASIHHLNRHSPHPQHNHEPRFRGQNHHNQNPNSIFQDFLKGSLNQEPAPTSQTTGSAPNGDSTTVTVLYSSPFPPPATVLSLNSGAGFEFLDNQDPLVTSNSNLHTHHHLSNAHAFNTSFEALVPSSSFGKKRGQDSNEGSGNRRHKRMIKNRESAARSRARKQAYTNELELEVAHLQAENARLKRQQDQLKMAAAIQQPKKNTLQRSSTAPF"}, "B2": {"name": "phospho-mimic T282E mFD (yeast two-hybrid fusion) (protein, UniProt Q84JK2 1-285)", "chain": "MLSSAKHQRNHRLSATNKNQTLTKVSSISSSSPSSSSSSSSTSSSSPLPSQDSQAQKRSLVTMEEVWNDINLASIHHLNRHSPHPQHNHEPRFRGQNHHNQNPNSIFQDFLKGSLNQEPAPTSQTTGSAPNGDSTTVTVLYSSPFPPPATVLSLNSGAGFEFLDNQDPLVTSNSNLHTHHHLSNAHAFNTSFEALVPSSSFGKKRGQDSNEGSGNRRHKRMIKNRESAARSRARKQAYTNELELEVAHLQAENARLKRQQDQLKMAAAIQQPKKNTLQRSSEAPF"}, "B3": {"name": "LQTE mFD (L277Q T282E) (yeast two-hybrid fusion) (protein, UniProt Q84JK2 1-285)", "chain": "MLSSAKHQRNHRLSATNKNQTLTKVSSISSSSPSSSSSSSSTSSSSPLPSQDSQAQKRSLVTMEEVWNDINLASIHHLNRHSPHPQHNHEPRFRGQNHHNQNPNSIFQDFLKGSLNQEPAPTSQTTGSAPNGDSTTVTVLYSSPFPPPATVLSLNSGAGFEFLDNQDPLVTSNSNLHTHHHLSNAHAFNTSFEALVPSSSFGKKRGQDSNEGSGNRRHKRMIKNRESAARSRARKQAYTNELELEVAHLQAENARLKRQQDQLKMAAAIQQPKKNTQQRSSEAPF"}, "B4": {"name": "FD, wild type (yeast two-hybrid fusion) (protein, UniProt Q84JK2 1-285)", "chain": "MLSSAKHQRNHRLSATNKNQTLTKVSSISSSSPSSSSSSSSTSSSSPLPSQDSQAQKRSLVTMEEVWNDINLASIHHLNRHSPHPQHNHEPRFRGQNHHNQNPNSIFQDFLKGSLNQEPAPTSQTTGSAPNGDSTTVTVLYSSPFPPPATVLSLNSGAGFEFLDNQDPLVTSNSNLHTHHHLSNAHAFNTSFEALVPSSSFGKKRGQDSNEGSGNRRHKRMIKNRESAARSRARKQAYTNELELEVAHLQAENARLKRQQDQLKMAAAIQQPKKNTLQRSSTAPF"}, "B5": {"name": "non-phosphorylatable T282A mFD (yeast two-hybrid fusion), Q84JK2 1-285 (protein)", "chain": "MLSSAKHQRNHRLSATNKNQTLTKVSSISSSSPSSSSSSSSTSSSSPLPSQDSQAQKRSLVTMEEVWNDINLASIHHLNRHSPHPQHNHEPRFRGQNHHNQNPNSIFQDFLKGSLNQEPAPTSQTTGSAPNGDSTTVTVLYSSPFPPPATVLSLNSGAGFEFLDNQDPLVTSNSNLHTHHHLSNAHAFNTSFEALVPSSSFGKKRGQDSNEGSGNRRHKRMIKNRESAARSRARKQAYTNELELEVAHLQAENARLKRQQDQLKMAAAIQQPKKNTLQRSSAAPF"}, "B6": {"name": "L277Q mFD (yeast two-hybrid fusion) (protein, UniProt Q84JK2 1-285)", "chain": "MLSSAKHQRNHRLSATNKNQTLTKVSSISSSSPSSSSSSSSTSSSSPLPSQDSQAQKRSLVTMEEVWNDINLASIHHLNRHSPHPQHNHEPRFRGQNHHNQNPNSIFQDFLKGSLNQEPAPTSQTTGSAPNGDSTTVTVLYSSPFPPPATVLSLNSGAGFEFLDNQDPLVTSNSNLHTHHHLSNAHAFNTSFEALVPSSSFGKKRGQDSNEGSGNRRHKRMIKNRESAARSRARKQAYTNELELEVAHLQAENARLKRQQDQLKMAAAIQQPKKNTQQRSSTAPF"}}, "test_in_all_cases": "two-hybrid; yeast two-hybrid, GAL4 AD and BD fusions; growth on selective (SCD -Leu, -Trp, -His) against non-selective (SCD -Leu, -Trp) medium", "key": {"[1]": {"target": "FLOWERING LOCUS T (FT) (yeast two-hybrid fusion) (Arabidopsis), Q9SXZ2", "conditions": "remark: other sources report otherwise"}, "[2]": {"target": "FLOWERING LOCUS T (FT) (yeast two-hybrid fusion) (Arabidopsis) (UniProt Q9SXZ2)"}, "[3]": {"target": "T1, GRF3 (14-3-3 psi) (yeast two-hybrid fusion) (Arabidopsis) (UniProt P42644)", "T1 sequence": "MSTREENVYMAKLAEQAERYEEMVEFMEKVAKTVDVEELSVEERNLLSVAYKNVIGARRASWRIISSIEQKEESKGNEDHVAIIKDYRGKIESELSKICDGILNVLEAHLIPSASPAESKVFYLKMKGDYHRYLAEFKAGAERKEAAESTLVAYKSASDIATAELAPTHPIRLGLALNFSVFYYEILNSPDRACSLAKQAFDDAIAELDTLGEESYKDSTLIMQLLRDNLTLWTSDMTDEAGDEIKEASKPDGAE"}, "[4]": {"target": "T2, GRF4 (14-3-3 phi) (yeast two-hybrid fusion) (Arabidopsis) (UniProt P46077)", "T2 sequence": "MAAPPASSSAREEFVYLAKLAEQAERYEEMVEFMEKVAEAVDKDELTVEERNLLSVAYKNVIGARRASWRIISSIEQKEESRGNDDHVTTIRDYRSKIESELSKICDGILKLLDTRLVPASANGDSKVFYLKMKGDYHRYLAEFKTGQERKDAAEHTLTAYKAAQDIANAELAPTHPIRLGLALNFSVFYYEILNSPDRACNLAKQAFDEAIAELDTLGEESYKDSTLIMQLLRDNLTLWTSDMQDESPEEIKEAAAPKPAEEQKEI"}}, "note": "No constants are given. Whether binding was seen depends on the method and setting. Some results given as binding are weak or reduced against the parent protein; the word gives no strength. Sequences can lack the tags named with a protein.", "data": [{"binder": "B1", "values": [{"measurement": "binding", "setting": "[1]", "result": "binds"}]}, {"binder": "B2", "values": [{"measurement": "binding", "setting": "[2]", "result": "binds"}]}, {"binder": "B3", "values": [{"measurement": "binding", "setting": "[2]", "result": "binds"}, {"measurement": "binding", "setting": "[3]", "result": "binds"}, {"measurement": "binding", "setting": "[4]", "result": "binds"}]}, {"binder": "B4", "values": [{"measurement": "binding", "setting": "[3]", "result": "binds"}, {"measurement": "binding", "setting": "[4]", "result": "binds"}]}, {"binder": "B5", "values": [{"measurement": "binding", "setting": "[1]", "result": "no binding"}]}, {"binder": "B6", "values": [{"measurement": "binding", "setting": "[2]", "result": "no binding"}, {"measurement": "binding", "setting": "[3]", "result": "no binding"}, {"measurement": "binding", "setting": "[4]", "result": "no binding"}]}]}
